# From PubChem BioAssay (NCATS)
# The list shows a part of the results. The main result of the screen is listed elsewhere. These columns were measured beside it and carry no call. The list favours compounds with an active or inconclusive main result. The note in brackets gives the kind of curve behind each potency; many fits are weak.
# Target: Catechol O-methyltransferase (Homo sapiens) (UniProt P21964)
# Assay: Confirmatory Screen for Target Class Profiling of Small Molecule Inhibitors of Methyltransferases (AID 1745852);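 note: inhibitor potency for blocking SAH production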
# Conditions: MTase-Glo luminescence, SAH detection, recombinant enzyme; measured here: COMT inhibition potency
# Tags give direction and shape of the fitted curve.
# Sequence of UniProt P21964 (P21964 whole entry, looked up): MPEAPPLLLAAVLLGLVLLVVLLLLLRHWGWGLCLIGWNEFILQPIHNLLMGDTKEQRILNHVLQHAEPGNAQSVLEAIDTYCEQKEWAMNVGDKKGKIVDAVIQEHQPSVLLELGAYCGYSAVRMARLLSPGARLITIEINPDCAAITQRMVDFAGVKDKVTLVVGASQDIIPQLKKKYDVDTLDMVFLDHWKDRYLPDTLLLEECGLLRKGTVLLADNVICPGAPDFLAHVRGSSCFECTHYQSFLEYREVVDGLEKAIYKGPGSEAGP
row,SMILES,IC50
1,CC(=O)NC(Cc1c[nH]c2ccccc(=O)c12)C(=O)O (stereo not given),"15.2 µM [falling, partial curve]"
2,CC(C)c1cc2c(c(O)c1O)[C@@]13CCCC(C)(C)C1[C@@H](O)[C@@H]2OC3=O (stereo not given in full),"2.98 µM [falling, full curve]"
3,CC1(C)C2CCC1(C)C(OC(=O)C(O)(CC(=O)O)CC(=O)O)C2 (stereo not given),"9.42 µM [falling, partial curve]"
4,CCC(C)C(=O)OC1CC(O)C23C4OCC5(C(O)CC2C1(C)C(O)O4)C3C(=O)C(O)C1(C)C(O)(c2ccoc2)CC2OC251 (stereo not given),"4.52 µM [falling, partial curve]"
5,C=C[C@](C)(CC/C=C(\C)C(=O)O)O[C@@H]1OC[C@H](O)[C@H](O)[C@H]1O,"3.34 µM [falling, full curve]"
6,COc1cc(/C=C/C(=O)OCC2OC(OC3(CO)OC(CO)C(O)C3O)C(O)C(O)C2O)ccc1O (stereo not given),"7.44 µM [falling, partial curve]"
7,COc1cc(/C=C/C(=O)OC[C@H]2O[C@@H](OC3OC=C(C(=O)O)C4C(O)CC(C)(O)C34)[C@H](O)[C@@H](O)[C@@H]2O)cc(OC)c1O (stereo not given in full),"5.69 µM [falling, partial curve]"
8,C/C=C(\C)C(=O)O[C@H]1[C@@H](O[C@]2(COC(=O)CC(C)C)O[C@H](COC(=O)C(C)C)[C@@H](OC(C)=O)[C@@H]2O)O[C@H](COC(C)=O)[C@@H](O)[C@@H]1O,"2.54 µM [falling, partial curve]"
9,CC(CCC1C(C(=O)O)=CC(=O)CC1(C)C)O[C@@H]1O[C@H](CO)[C@@H](O)[C@H](O)[C@H]1O (stereo not given in full),"2.66 µM [falling, full curve]"
10,C=C1C(=O)OC2CC(C)C(CCC(C)O)=CCC12 (stereo not given),"0.681 µM [falling, full curve]"
11,Cc1c(O)cc(O)c2c(=O)c(O)c(-c3ccc(O)c(O)c3)oc12,"24.1 µM [falling, partial curve]"
12,C=C1C(=O)O[C@@H]2CC(C)=C([C@@H](C)CCCOC(C)=O)[C@@H](O)[C@H]12,"2.37 µM [falling, full curve]"
13,C=C(C(=O)O)C1CC(O)C2(C)CCCC(=C)C2C1 (stereo not given),"19.2 µM [falling, partial curve]"
14,CC(=O)OC/C(=C/C(=O)O)CC[C@@H]1C(CO)=CC[C@@H]2C(C)(C)CCC[C@@]12C,"6.67 µM [falling, partial curve]"
15,CC(C)(O)C1CC=C(C(=O)OC[C@H]2O[C@@H](Oc3cc(C(=O)O)cc(O)c3O)[C@H](O)[C@@H](O)[C@@H]2O)CC1 (stereo not given in full),"3.32 µM [falling, full curve]"
16,C/C(=C\CC/C(C)=C/CC[C@]1(C)CCc2cc(O)cc(C)c2O1)CC/C=C(\C)C(=O)O,"16.7 µM [falling, partial curve, poor fit]"
17,CC1(C)CC[C@]2(C(=O)O[C@@H]3O[C@H](CO)[C@@H](O)[C@H](O)[C@H]3O)CC[C@]3(C)C(=CCC4[C@@]5(C)C[C@@H](O)[C@H](O)[C@@](C)(CO)C5CC[C@]43C)C2[C@@H]1O (stereo not given in full),"0.452 µM [falling, full curve]"
18,C=C1C(=O)O[C@@H]2CC(C)=C([C@@H](C)CCCO)[C@@H](OC(=O)C(C)C)[C@H]12,"7.48 µM [falling, partial curve]"
19,CC1(C)CC[C@]2(C(=O)O[C@@H]3O[C@H](CO)[C@@H](O)[C@H](O)[C@H]3O)CC[C@]3(C)C(=CCC4[C@@]5(C)CC[C@H](O[C@@H]6O[C@H](C(=O)O)[C@H](O)[C@H](O)[C@H]6O)C(C)(C)C5CC[C@]43C)[C@@H]2C1 (stereo not given in full),"5.69 µM [falling, partial curve]"
20,C=C1C(=O)O[C@@H]2/C=C(\CO)CC/C=C(/C=O)C[C@@H](O)[C@@H]12,"19.2 µM [falling, partial curve]"

row,SMILES,IC50
1,C=C[C@H]1[C@H](O[C@@H]2O[C@H](CO)[C@@H](O)[C@H](O)[C@H]2O)OC=C(C(=O)OC)[C@H]1CCOC(=O)c1cc(O)c(O)c(O)c1,"0.0373 µM [falling, full curve]"
2,COc1c(CCC(=O)O)cccc1O[C@@H]1O[C@H](CO)[C@@H](O)[C@H](O)[C@H]1O,"7.48 µM [falling, partial curve]"
3,CC1=CC(=O)CC(C)(C)C1(O)CCC(C)O (stereo not given),"12.1 µM [falling, partial curve]"
4,CC1(C)CC[C@]2(C(=O)O[C@@H]3O[C@H](CO)[C@@H](O)[C@H](O)[C@H]3O)CC[C@]3(C)C(=CCC4[C@@]5(C)C[C@@H](O)[C@H](O)C(C)(C)C5CC[C@]43C)C2[C@@H]1O (stereo not given in full),"0.569 µM [falling, full curve]"
5,CC1(C)CCC2(C(=O)OC3OC(COC4OC(CO)C(O)C(O)C4O)C(O)C(O)C3O)CCC3(C)C(=CCC4C5(C)CCC(O)C(C)(C(=O)O)C5CCC43C)C2C1O (stereo not given),"4.08 µM [falling, partial curve]"
6,C=C1C(=O)O[C@H]2CC(=C)[C@H]3CC[C@@](C)(O)[C@@H]3CC12 (stereo not given in full),"0.961 µM [falling, full curve]"
7,COc1cc(C2Oc3c(OC)cc(/C=C/C(=O)OC[C@H]4O[C@@H](OC(C)(C)C(=O)O)[C@H](O)[C@@H](O)[C@@H]4O)cc3C2CO)ccc1O (stereo not given in full),"5.69 µM [falling, partial curve]"
8,COc1ccc(CCNC(=O)c2ccc3c(=O)[nH]c4c(C(=O)NCC5CCCO5)sc(=S)n4c3c2)cc1OC (stereo not given),"24.1 µM [falling, partial curve]"
9,O=C(NCCCc1ccccc1)c1cccc(-c2cc(O)c3ncccc3c2)c1,"6.85 µM [falling, full curve]"
10,C=CC(C)(O)CC/C=C(\C)COC1O[C@H](CO)[C@@H](O)[C@H](O)[C@H]1O (stereo not given in full),"3.34 µM [falling, full curve]"
11,CC1(CO)CC(O)[C@]2(C(=O)O)CCC34CC3(C=CC3[C@]5(C)C(CC[C@]34C)C(C)(CO)[C@@H](O)[C@H](O)[C@@H]5O)C2C1 (stereo not given in full),"8.35 µM [falling, partial curve]"
12,C=C1C(O[C@@H]2O[C@H](CO)[C@@H](O)[C@H](O)[C@@H]2O)CC2C(C)(C)C(O)CCC2(C)C1CC/C(C)=C\CO (stereo not given in full),"7.44 µM [falling, partial curve]"
13,C=C(C(=O)O)[C@@H]1CC[C@H](C)[C@@H]2CC(=O)C(C)=C2C1,"13.6 µM [falling, partial curve]"
14,COc1cc(F)ccc1-c1cc(-c2ccc(=O)[nH]c2)c2cncn2c1,"5.55 µM [falling, full curve]"
15,CC(=O)OC/C(=C/C(=O)O)CC[C@@H]1C(C=O)=CC[C@@H]2C(C)(C)CCC[C@@]12C,"9.42 µM [falling, partial curve]"
16,CC(C)=CCC(O)/C(C)=C/CO[C@@H]1O[C@H](CO)[C@@H](O)[C@H](O)[C@H]1O (stereo not given in full),"13.3 µM [falling, partial curve]"
17,O=C(c1ccccc1)c1c(O)cc(O)cc1O[C@@H]1O[C@H](CO)[C@@H](O)[C@H](O)[C@H]1O,"2.37 µM [falling, full curve]"
18,CC(=O)OC/C(=C/C(=O)O)CC[C@@H]1C(C)=CC(=O)[C@@H]2C(C)(C)CCC[C@@]12C,"11.9 µM [falling, partial curve]"
19,C=C(C)[C@H]1C[C@@H](O)C(=C)CC[C@@H](O)C(=C)[C@@H](O)C1,"6.81 µM [falling, partial curve]"
20,CC(=O)c1c(C)cccc1O[C@@H]1O[C@H](CO)[C@@H](O)[C@H](O)[C@H]1O,"11.9 µM [falling, partial curve]"
